PubChem BioAssay AID445 (National Center for Advancing Translational Sciences (NCATS), 2006)
Several values for one entry are separate records, joined by “and”; a condition that tells them apart may be missing. Equal entries are not always repeated. Among all 110,000 compounds or so, about 40 (0.04%) were called active. This list was built around the results that the source calls inconclusive (neither active nor inactive); the mix of calls is not that of the screen. Calls come from the whole dose curve; as a rule, active = well fitted curve in the direction sought with a large enough effect in the signal ratio (not every such curve was filed as active); inconclusive = small, poorly fitted or top-dose-only effect, or a change in a side signal; inactive = flat fitted curve, though single readings scatter; the % refers to the signal ratio. Potencies of inconclusive entries are doubtful fits and often do not repeat.
Potency is the fitted concentration of half-maximal effect.

Assay: IkB Signaling;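 for IkBa stabilization activation: 0% = basal untreated cells and 100% = reference inhibitor full response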
Details: ABC-DLBCL IkBa-CBG/CBR dual luciferase ratio (green luciferase fused to IkBa over red control in OCI-Ly3 lymphoma cells), 4 h; IkBa stabilization activation: at 57.1 µM (top of the series), scaled: untreated 0%, proteasome inhibitor 100% unless noted
Method in brief: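 Luminescence ratio of IκBα-fused green versus native red beetle luciferase in OCI-Ly3 cells, 4 h post-doxycycline with compound; red signal alone, scaled from basal (0%) to zero light (-100%), flagged nonspecific or cytotoxic effects.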
In the case of `COc1ccc(-c2nc(CSCC(=O)N3CCc4ccccc43)c(C)o2)cc1OC`, the IkBa stabilization activation is reported as “inactive”.
For `CC(C)Cn1cc(NC(=O)N2CCN(c3ccc(F)cc3)CC2)c2ccccc2c1=O`, the IkBa stabilization activation was inconclusive: 0.0965% [signal inhibitor].
For `CC(=O)c1ccc(NC(=O)CSC2=Nc3ccccc3N=C(c3ccc(F)cc3)C2)cc1`, the IkBa stabilization activation was inconclusive: 3.13% [signal inhibitor].
With `COc1cc(OC)cc(-c2nc3nc(C)c(CCC(=O)Nc4cc(C)cc(C)c4)c(C)n3n2)c1` the IkBa stabilization activation was inconclusive: 5.11% [signal inhibitor].
With `O=C(c1ccc2c(Cl)c3c(nc2c1)CCCC3)N1CCN(c2ccc(Cl)cc2)CC1` the IkBa stabilization activation was inconclusive: 2.44% [signal inhibitor].
With `COc1ccc(N2CCN(CCCNC(=O)C3COc4ccccc4C3)CC2)cc1` (stereo unspecified) the IkBa stabilization activation was “inactive”.
For `O=C(Nc1nc2c(F)cc(F)cc2s1)c1ccc(S(=O)(=O)N2CCc3ccccc32)cc1`, the IkBa stabilization activation was inconclusive: 7.99% [signal inhibitor].
For `CCN1C(C(=O)c2ccccc2)=C(OC(=O)COc2ccc(C)cc2)c2ccccc2S1(=O)=O`, the IkBa stabilization activation was inconclusive: 2.83% [signal inhibitor].
With `COC(=O)c1ccc(N2C(=O)Cc3cc(OC)c(OC)cc3C2c2ccc(F)cc2)cc1` (stereo unspecified) the IkBa stabilization activation was inconclusive: 1.93% [signal inhibitor].
For `C[C@@H]1CCC[C@H](C)N1`, the IkBa stabilization activation was “inactive”.
For `O=C(O)C1=C/C(=C(/c2ccccc2)c2cc(C(=O)O)c(O)c3ccccc23)c2ccccc2C1=O`, the IkBa stabilization activation was inactive: 0.809% [at 11.4 µM, scaled: untreated 0%, proteasome inhibitor 100%] and inactive: 2.77% [at 11.4 µM, scaled: untreated 0%, proteasome inhibitor 100%].
For `COc1ccc(CCCc2nnc(SCC(=O)Nc3cccc(F)c3C)o2)cc1`, the IkBa stabilization activation was inconclusive: 9.67% [signal inhibitor].
In the case of `CCOCCc1nn2c(=O)cc(COC(=O)c3ccccc3OC)nc2s1`, the IkBa stabilization activation is reported as inconclusive: 10.4% [signal inhibitor].
In the case of `CCCC(=O)Nc1cccc(OCc2cc(=O)n3cccc(C)c3n2)c1`, the IkBa stabilization activation is reported as inconclusive: -1.48% [signal inhibitor].
With `O=C(c1cc2cc(Cl)ccc2oc1=O)N1CCOCC1` the IkBa stabilization activation was “inactive”.
In the case of `CCn1c(C)c(C)c2cc(C(=O)NCC(C)c3ccccc3)ccc21` (stereo unspecified), the IkBa stabilization activation is reported as inconclusive: 0.292% [signal inhibitor].
With `CC1(C)[C@@H](O)CC[C@@]2(C)[C@H]1CC[C@]1(C)[C@H]2C(=O)C=C2[C@@H]3C[C@@](C)(C(=O)O)CC[C@]3(C)CC[C@@]21C` the IkBa stabilization activation was inactive: 0.749% [at 11.4 µM, scaled: untreated 0%, proteasome inhibitor 100%].
For `CCOc1ccc(Nc2nc(-c3cccc(Cl)c3)c3c(n2)-c2ccccc2OC3)cc1`, the IkBa stabilization activation was “inactive”.
In the case of `COc1ccc(N(CC(=O)Nc2cccc(Cl)c2)S(=O)(=O)c2c(C)[nH]c(=O)[nH]c2=O)cc1`, the IkBa stabilization activation is reported as inconclusive: 2.15% [signal inhibitor].
In the case of `Cc1cccc(OCc2nc(CC(=O)Nc3ccc(Cl)cc3)cs2)c1`, the IkBa stabilization activation is reported as inconclusive: 1.9% [signal inhibitor].
In the case of `Cc1cccc(C)c1-n1ncc(C(=O)NCCCN2CCC(C)CC2)c1C1CCN(C(=O)OC(C)(C)C)CC1`, the IkBa stabilization activation is reported as inconclusive: 2.34% [signal inhibitor].
In the case of `CCOC(=O)c1cnc2c(ccc3ccccc32)c1Nc1ccc(C(C)=O)cc1`, the IkBa stabilization activation is reported as inconclusive: 10.9% [signal inhibitor].
In the case of `O=C(Nc1ccc(N2CCCC2)c(Cl)c1)c1ccc(Br)o1`, the IkBa stabilization activation is reported as inconclusive: -4.76% [signal inhibitor].
In the case of `COc1cccc(CSc2nc3ccncc3n2CC(=O)Nc2ccc(OC)c(OC)c2OC)c1`, the IkBa stabilization activation is reported as inconclusive: 10.7% [signal inhibitor].
For `COc1cccc(-c2cc(NCc3ccccc3OC)ncn2)c1`, the IkBa stabilization activation was inactive: 1.36% [at 11.4 µM, scaled: untreated 0%, proteasome inhibitor 100%].
In the case of `O=S(=O)(c1ccc(Cl)cc1)c1nc(-c2cccs2)oc1N1CCCCC1`, the IkBa stabilization activation is reported as inconclusive: 2.36% [signal inhibitor].
With `CCc1cc2c(cc3c(=O)n(CC(=O)NC(C)c4ccccc4)ncn32)s1` (stereo unspecified) the IkBa stabilization activation was “inactive”.
In the case of `Cc1cc(C)nc(-n2nc(C)c3c2N(Cc2ccccc2F)C(=O)CC3c2ccc(Cl)cc2)n1` (stereo unspecified), the IkBa stabilization activation is reported as inconclusive: -1.22% [signal inhibitor].
With `CCOC(=O)c1sc2ccccc2c1S(=O)(=O)NCc1ccccc1OC` the IkBa stabilization activation was inconclusive: 0.54% [signal inhibitor].
With `O=C(O)CSc1nnc(-c2ccco2)o1` the IkBa stabilization activation was “inactive”.
For `Cn1ncc2c(N3CCN(c4ccc(F)cc4)CC3)ncnc21`, the IkBa stabilization activation was inconclusive: 0.0853% [signal inhibitor].
With `COc1cc(-c2nc3sccn3c2Nc2c(C)cccc2C)ccc1O` the Potency was inconclusive: 31.6 µM [rising, single point].
For `COc1ccc2nc3oc(C(=O)N4CCC(C(N)=O)CC4)cc3cc2c1`, the Potency was inconclusive: 12.6 µM [signal inhibitor, partial curve].
In the case of `CC(C)(C)c1ccc(C(=O)CSc2ncn[nH]2)cc1`, the IkBa stabilization activation is reported as inconclusive: 4% [signal inhibitor].
In the case of `CCCn1c(N)c(C(=O)CSc2nc3ccccc3n2CCC#N)c(=O)n(C)c1=O`, the IkBa stabilization activation is reported as “inactive”.
With `CC(=O)N1CCCC1c1nc2ccccc2n1Cc1ccccc1Cl` (stereo unspecified) the IkBa stabilization activation was inconclusive: -0.263% [signal inhibitor].
In the case of `CCS(=O)(=O)N1CCCc2cc(C(=O)Nc3cccc(C(C)=O)c3)ccc21`, the IkBa stabilization activation is reported as inconclusive: 2.16% [signal inhibitor].
With `COc1cc(NC(=O)c2cccc(Cl)c2Cl)ccc1NC(=O)c1cc2ccccc2o1` the IkBa stabilization activation was inconclusive: 3.7% [signal inhibitor].
For `CCOc1ccc(C(=O)C2CCN(CC(=O)Nc3ccccc3N3CCOCC3)CC2)cc1`, the IkBa stabilization activation was inconclusive: 3.16% [signal inhibitor].
In the case of `CCC(=O)N1CCc2cc(Br)cc(S(=O)(=O)CCC(=O)Nc3cccc(Cl)c3)c21`, the IkBa stabilization activation is reported as inconclusive: 5.14% [signal inhibitor].
In the case of `Clc1ccc(-c2nnn3c2nc(NC2CCCCC2)c2ccccc23)cc1`, the Potency is reported as inconclusive: 2 µM [signal inhibitor].
